Test results reported in PubChem BioAssay AID1460 (National Center for Advancing Translational Sciences (NCATS), 2008).
Out of some 270,000 compounds screened, about 5,800 (2.1%) were called active. This list was built around the results that the source calls inconclusive (neither active nor inactive); the mix of calls is not that of the screen. The call rests on the fitted dose curve; in most records, active means well fitted inhibition curve with a large enough effect; inconclusive means small, poorly fitted or top-dose-only effect; inactive means flat fitted curve, though single readings scatter. Potencies of inconclusive entries are doubtful fits and often do not repeat.

molecular target: Microtubule-associated protein tau (Homo sapiens) (UniProt P10636); assay: qHTS for Inhibitors of Tau Fibril Formation, Thioflavin T Binding; conditions: recombinant tau K18 P301L (four-repeat tau fragment), heparin-induced fibrillization, ThT fluorescence; series mostly up to 57.4 µM; further: nearly all actives have a fitted effect of over 55% in size
Sequence of UniProt P10636 (P10636 whole entry, looked up, the tested form may be a part): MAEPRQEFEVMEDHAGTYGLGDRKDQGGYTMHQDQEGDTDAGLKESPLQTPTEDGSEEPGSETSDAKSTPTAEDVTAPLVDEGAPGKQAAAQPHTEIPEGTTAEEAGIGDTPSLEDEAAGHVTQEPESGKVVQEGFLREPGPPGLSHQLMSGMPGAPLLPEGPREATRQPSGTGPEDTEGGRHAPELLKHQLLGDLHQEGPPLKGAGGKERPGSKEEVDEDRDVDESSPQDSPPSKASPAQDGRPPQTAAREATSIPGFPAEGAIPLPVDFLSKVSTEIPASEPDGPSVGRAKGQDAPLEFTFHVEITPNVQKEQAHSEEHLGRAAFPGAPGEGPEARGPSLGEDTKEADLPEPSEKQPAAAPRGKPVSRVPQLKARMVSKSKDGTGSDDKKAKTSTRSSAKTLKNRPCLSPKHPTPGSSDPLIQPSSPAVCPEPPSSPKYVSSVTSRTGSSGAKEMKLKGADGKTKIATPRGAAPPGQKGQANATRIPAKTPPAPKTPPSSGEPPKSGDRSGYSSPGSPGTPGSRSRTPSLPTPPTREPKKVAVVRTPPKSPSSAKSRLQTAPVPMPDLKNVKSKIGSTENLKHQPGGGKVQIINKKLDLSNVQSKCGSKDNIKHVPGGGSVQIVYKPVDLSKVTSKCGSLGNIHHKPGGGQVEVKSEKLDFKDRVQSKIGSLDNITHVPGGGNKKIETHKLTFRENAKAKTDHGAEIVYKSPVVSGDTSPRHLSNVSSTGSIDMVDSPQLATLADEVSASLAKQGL
In short: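 Tau K18 P301L fragment (15 uM unlabeled plus 0.24 uM Alexa 594-labeled) in 100 mM sodium acetate pH 7 with compound, fibrillization induced by 20 uM heparin for 6 hr at 37 C. Thioflavin T (30 uM) added, fluorescence read after 1 hr (ex 450, em 510 nm).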
On the % scale 0 is the no-effect control and ±100 the full control effect; potency means the concentration at half of the fitted maximal effect; tags describe the fitted curve by direction and shape.

| SMILES | Potency | activity, negative = inhibition |
| --- | --- | --- |
| Cc1ccc(C#N)c(SCc2nnc(-c3ccc(Cl)cc3)o2)n1 | inconclusive: 22.4 µM [inhibitor, partial curve, poor fit] | – |
| O=C1OCC2=C1C(c1cccc(Cl)c1)CC(=O)N2c1ccc(C(F)(F)F)cc1 (centres undefined) | inactive | – |
| CCOc1ccccc1NC(=O)C1CCN(S(=O)(=O)c2c(C)noc2/C=C/c2ccco2)CC1 | inactive | – |
| Cc1c(C(=O)N/N=C/c2ccc(O)c(Br)c2)sc(N)c1C#N | inconclusive: 2.82 µM [inhibitor, full curve] | – |
| CCN(CC)c1ncnc2c1cnn2-c1cc(Cl)ccc1C | inactive | – |
| COc1ccc(-c2csc(Nc3ncccc3C)n2)cc1OC | active: 10 µM | – |
| O=C1C=C(O)CC(c2cccs2)C1 (centres undefined) | inconclusive: 7.94 µM [inhibitor, full curve] | – |
| CC1CN(C(=O)/C=C/c2ccc([N+](=O)[O-])s2)CC(C)O1 (centres undefined) | inactive | – |
| Cc1nn(-c2ccccc2)c(Cl)c1/C=N/N1CCN(c2ccccn2)CC1 | inconclusive: 2.24 µM [inhibitor, full curve] | – |
| CC1=NOC(=O)/C1=C/c1ccc(-c2ccc(Cl)cc2)o1 | active: 17.8 µM | – |
| CCCCSc1nc(O)c(C2OC(=O)c3c2ccc(OC)c3OC)c(=O)n1C (centres undefined) | inconclusive: 15.8 µM [inhibitor, partial curve] | – |
| COc1cccc(NC(=O)NC2(C(F)(F)F)Oc3ccccc3O2)c1 | inconclusive: 14.1 µM [inhibitor, partial curve] | – |
| Clc1ccc(-c2nc3ccccn3c2CN2CCCCC2)cc1 | inactive | – |
| CCOC(=O)c1nnc(-c2ccc(C)cc2)nc1Sc1ccccc1Cl | inconclusive: 17.8 µM [inhibitor, single point] | – |
| CCOc1ccc(-n2nnc3c(=O)n(C/C=C/c4ccccc4)cnc32)cc1 | inactive | – |
| O=S(=O)(c1ccc(Br)s1)N1CCN(c2cccc(C(F)(F)F)c2)CC1 | inactive | – |
| CC(=O)c1c(C)[nH]c(C(=O)Nc2ccc3c(c2)OCCO3)c1C | inconclusive: 12.6 µM [inhibitor, partial curve] | – |
| O=C(NCCc1ccc(Cl)cc1)c1c2c(nc3ccccc13)C(=O)N(C1CCCCC1)C2 | inactive | – |
| CC(C)n1nc(C(=O)Nc2nc3ccccc3[nH]2)c2ccccc2c1=O | inactive | – |
| CCOC(=O)CSc1ncc(-c2ccc([N+](=O)[O-])cc2)[nH]1 | inconclusive: 17.8 µM [inhibitor, partial curve] | – |
| Cc1ccc(C(=O)Nc2ccc3c(c2)OCO3)o1 | inconclusive: 17.8 µM [inhibitor, partial curve] | – |
| COc1cc(C2Nc3ccccc3-c3cc(C)nn32)ccc1O (centres undefined) | inactive | – |
| CCOc1ccccc1NC(=O)/C(C#N)=C/c1c(C)nn(-c2ccccc2)c1Cl | inconclusive: 11.2 µM [inhibitor, single point] | – |
| N#C/C(=C(/O)CSc1ncn[nH]1)c1nc2ccccc2[nH]1 | inconclusive: 8.91 µM [inhibitor, partial curve, poor fit] | – |
| CC(C)CC(=O)NC(c1cccs1)c1ccc2cccnc2c1O (centres undefined) | inactive | – |

| SMILES | Potency | activity, negative = inhibition |
| --- | --- | --- |
| O=C(CCCn1c2ccccc2c(=O)c2ccccc21)Nc1cccc(Cl)c1 | inconclusive: 0.562 µM [inhibitor, full curve, poor fit] | – |
| O=C(CCn1c(=O)oc2ccccc21)NC1=NCCS1 | inactive | – |
| Clc1cccc(N2CCN(Cc3nc(-c4ccccc4)no3)CC2)c1 | inconclusive: 17.8 µM [inhibitor, partial curve, poor fit] | – |
| CCOC(=O)c1ccc(NC(=O)CN2CCN(CCN=CC3=C(O)CC(C)(C)CC3=O)CC2)cc1 | inactive | – |
| CC1CCN(C(=O)c2cc(-c3ccccc3O)on2)CC1 | inactive | – |
| COC(=O)CCC(=O)OC1(C)C(=O)C2=CN(Cc3ccc4c(c3)OCO4)C(c3ccc(OC)cc3)=CC2=C(Br)C1=O (centres undefined) | – | inactive: 2.09% [at 11.5 µM] |
| COc1ccc(-n2c(=O)c3c4c(sc3n3c(=S)[nH]nc23)CCCC4)cc1 | inactive | – |
| CC1=C(c2ccc(Cl)cc2)[N+](=O)C(C)(C)N1[O-] | inconclusive: 15.8 µM [inhibitor, partial curve] | – |
| COc1ccc(-c2cc(N3C(=O)Nc4ccccc4N3O)n[nH]2)cc1 | inconclusive: 15.8 µM [inhibitor, partial curve, poor fit] | – |
| COc1cc(C)ccc1OCCSc1nc2ccc(NC(=O)c3ccco3)cc2s1 | inconclusive: 0.794 µM [inhibitor, full curve, poor fit] | – |
| O=C(Nc1ccccc1C(=O)N1CCOCC1)c1cccc(S(=O)(=O)N2CCCC2)c1 | inactive | – |
| Cc1cc(C(=O)Nc2ccccc2N2CCCCC2)no1 | inconclusive: 6.31 µM [inhibitor, partial curve] | – |
| Cc1occc1-c1nnc(SCC(=O)c2ccc(F)cc2)o1 | inconclusive: 39.8 µM [inhibitor, partial curve] | – |
| COc1ccc(NC(=O)c2ccc3c(c2)NC(=O)CO3)cc1OC | inconclusive: 20 µM [inhibitor, partial curve] | – |
| CCCCCCn1nnc2sc(-c3ccccc3)cc2c1=O | inconclusive: 15.8 µM [inhibitor, partial curve] | – |
| O=C(NCc1ccc2c(c1)OCO2)C(=O)Nc1ccccc1 | inactive | – |
| O=C(Cn1c(=S)[nH]c2ccccc2c1=O)NCCc1ccccc1 | inactive | – |
| Cc1c([N+](=O)[O-])c(C(=O)Sc2ccc(Br)cc2)nn1C | inconclusive: 10 µM [inhibitor, partial curve] | – |
| CCc1nnc(NC(=O)CCNC(=O)c2ccccc2Cl)s1 | inactive | – |
| Cc1c(C)n(C)c2ccc([N+](=O)[O-])cc12 | inconclusive: 20 µM [inhibitor, single point] | – |
| O=[N+]([O-])c1ccc2c(c1)/C(=N\O)c1ccccc1-2 | inconclusive: 1.58 µM [inhibitor, full curve] | – |
| CCc1ccc2nc3sc(C(=O)N4CCc5ccccc54)c(N)c3cc2c1 | inconclusive: 0.282 µM [inhibitor, full curve] | – |
| O=C(O)CC1CCCc2ccccc2C1O (centres undefined) | inactive | – |
| O=C(c1cccc(F)c1)N1CCc2ccccc2C1 | inactive | – |
